# Measurements reported in paper PMC4336329 (PLoS ONE, 2015).
# Screen size: about 310,000 compounds; about 14,000 (4.5%) showed an effect of 50% or more. Effects have a minus sign here. The list shows a part of the results.
# Molecular target: human ether-à-go-go-related gene (hERG) potassium channel (human, UniProt Q12809)
# Assay: primary screen, population patch clamp on CHO cells stably expressing hERG
# 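Note: peak tail current of the secondary pulse compared with the same well before compound.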
# human ether-à-go-go-related gene (hERG) potassium channel, sequence (Q12809 whole entry, looked up): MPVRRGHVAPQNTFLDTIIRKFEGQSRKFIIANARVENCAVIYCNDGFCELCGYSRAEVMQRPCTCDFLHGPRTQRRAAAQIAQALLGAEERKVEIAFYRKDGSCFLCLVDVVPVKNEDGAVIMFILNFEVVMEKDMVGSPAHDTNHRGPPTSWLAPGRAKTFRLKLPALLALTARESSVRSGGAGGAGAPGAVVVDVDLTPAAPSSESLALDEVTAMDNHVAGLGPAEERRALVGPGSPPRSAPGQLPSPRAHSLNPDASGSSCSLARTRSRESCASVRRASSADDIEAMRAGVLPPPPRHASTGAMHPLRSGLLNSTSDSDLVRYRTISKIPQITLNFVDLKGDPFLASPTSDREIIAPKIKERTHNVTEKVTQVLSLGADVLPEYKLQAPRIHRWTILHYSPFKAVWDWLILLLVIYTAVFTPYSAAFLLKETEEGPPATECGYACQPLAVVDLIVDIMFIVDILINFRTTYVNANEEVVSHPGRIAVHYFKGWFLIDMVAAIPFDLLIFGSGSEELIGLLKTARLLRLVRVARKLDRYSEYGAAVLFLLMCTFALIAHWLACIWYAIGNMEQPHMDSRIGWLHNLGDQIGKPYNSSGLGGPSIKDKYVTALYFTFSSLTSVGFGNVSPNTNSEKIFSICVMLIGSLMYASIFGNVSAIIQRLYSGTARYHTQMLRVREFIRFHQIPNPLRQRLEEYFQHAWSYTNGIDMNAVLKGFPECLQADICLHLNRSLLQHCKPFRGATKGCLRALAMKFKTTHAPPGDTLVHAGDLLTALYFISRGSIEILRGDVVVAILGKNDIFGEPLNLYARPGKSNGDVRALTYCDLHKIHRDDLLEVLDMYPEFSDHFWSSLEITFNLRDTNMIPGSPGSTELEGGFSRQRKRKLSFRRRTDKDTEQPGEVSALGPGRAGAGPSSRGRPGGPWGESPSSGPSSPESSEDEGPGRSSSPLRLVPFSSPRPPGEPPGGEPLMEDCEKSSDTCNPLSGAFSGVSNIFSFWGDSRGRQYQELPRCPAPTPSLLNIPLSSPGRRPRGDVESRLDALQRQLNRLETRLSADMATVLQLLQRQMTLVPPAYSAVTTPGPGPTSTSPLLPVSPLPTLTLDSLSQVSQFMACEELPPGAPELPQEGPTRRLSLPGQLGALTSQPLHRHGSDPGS
row,SMILES,"hERG current change (%, negative = inhibition) at 10uM [%]"
1,NC(=O)Cn1cc(/C=N\NS(=O)(=O)c2cccc([N+](=O)[O-])c2)c2ccccc21,32.4
2,Nc1nonc1-n1nnc(C(=O)N/N=C/c2cccc(F)c2)c1CN1CCCCCC1,20.8
3,Cc1cccc(CC2CC(=O)N(c3ccc([N+](=O)[O-])cc3)C2=O)c1 (stereo not shown),-53.3
4,Cc1nc2c(cc1C(=O)N/N=C/c1ccc([N+](=O)[O-])cc1)c(=O)n(C)c(=O)n2C,-12
5,CC1CN(c2ccc([N+](=O)[O-])c3cccnc23)CC(C)N1 (stereo not shown),-33.4
6,CCOC(=O)CNC(=O)c1cn(C)c(=O)c2cc(OC)c(OC)cc12,13.1
7,O=C(c1ccc(CSc2ccc(Cl)cc2)cc1)N1CCOCC1,-48.3
8,Cc1cc2cc(CCNC(=O)C(=O)c3c[nH]c4ccccc34)c(=O)[nH]c2cc1C,1.09
9,COc1cccc(/C=N/NC(=O)C(C)Cn2cnc3ccccc32)c1 (stereo not shown),-7.38
10,COC(=O)c1ccc(NC(=O)CSc2nc3ccc(N4C(=O)C5C6C=CC(C6)C5C4=O)cc3s2)cc1 (stereo not shown),-2.9
11,CCOC(=O)N/N=C\c1cccc(OC)c1OC/C=C/c1ccccc1,-10.8
12,CCN1C(=O)C(CC(=O)Nc2cccc(C(C)=O)c2)S/C1=N\c1ccccn1 (stereo not shown),23.5
13,Cn1c(SCc2cccc([N+](=O)[O-])c2)nc2c(c1=O)SCC2,-36.6
14,CN=C(Nc1cc(C)nn1-c1ccccc1)c1ccc(F)cc1,-9.94
15,COc1cc(OC)cc(-c2cc3nc(C)c(CCC(=O)NC(C)CCc4ccco4)c(C)n3n2)c1 (stereo not shown),-58.4
16,COc1ccc(-n2ncc3c(=O)n(CC(=O)N4CCCc5ccccc54)cnc32)cc1,-14.8
17,CCCCC/C(=N\NC(=O)CCC(=O)NCc1ccccc1)c1ccccc1,-0.38
18,COc1ccc(N2C(=O)C3C(c4ccc(C(=O)O)cc4)NC(Cc4ccccc4)(C(=O)O)C3C2=O)c([N+](=O)[O-])c1 (stereo not shown),5.34
19,O=C(NCc1ccccn1)c1cc2cc(Br)ccc2oc1=O,9.14
20,Cn1c(Cn2c(C(F)(F)F)nc3ccccc32)nc2ccccc21,-13.8
21,CN(c1ccc(C(=O)N2CCOCC2)cc1)S(=O)(=O)c1ccc(Cl)cc1,-34.2
22,CC(C)CNC(=O)CC(=O)N/N=C/c1ccc(Br)cc1,7.16
